Data reported in PMC4336329 (PLoS ONE, 2015).
In all, about 310,000 compounds went through this assay and about 14,000 (4.5%) showed an effect of 50% or more. The effect is printed as a negative number. Some of the results follow.

Target: human ether-à-go-go-related gene (hERG) potassium channel (human, UniProt Q12809)
Test: primary screen, population patch clamp on CHO cells stably expressing hERG
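Further: peak tail current of the secondary pulse compared with the same well before compound.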

human ether-à-go-go-related gene (hERG) potassium channel, sequence (Q12809 whole entry, looked up): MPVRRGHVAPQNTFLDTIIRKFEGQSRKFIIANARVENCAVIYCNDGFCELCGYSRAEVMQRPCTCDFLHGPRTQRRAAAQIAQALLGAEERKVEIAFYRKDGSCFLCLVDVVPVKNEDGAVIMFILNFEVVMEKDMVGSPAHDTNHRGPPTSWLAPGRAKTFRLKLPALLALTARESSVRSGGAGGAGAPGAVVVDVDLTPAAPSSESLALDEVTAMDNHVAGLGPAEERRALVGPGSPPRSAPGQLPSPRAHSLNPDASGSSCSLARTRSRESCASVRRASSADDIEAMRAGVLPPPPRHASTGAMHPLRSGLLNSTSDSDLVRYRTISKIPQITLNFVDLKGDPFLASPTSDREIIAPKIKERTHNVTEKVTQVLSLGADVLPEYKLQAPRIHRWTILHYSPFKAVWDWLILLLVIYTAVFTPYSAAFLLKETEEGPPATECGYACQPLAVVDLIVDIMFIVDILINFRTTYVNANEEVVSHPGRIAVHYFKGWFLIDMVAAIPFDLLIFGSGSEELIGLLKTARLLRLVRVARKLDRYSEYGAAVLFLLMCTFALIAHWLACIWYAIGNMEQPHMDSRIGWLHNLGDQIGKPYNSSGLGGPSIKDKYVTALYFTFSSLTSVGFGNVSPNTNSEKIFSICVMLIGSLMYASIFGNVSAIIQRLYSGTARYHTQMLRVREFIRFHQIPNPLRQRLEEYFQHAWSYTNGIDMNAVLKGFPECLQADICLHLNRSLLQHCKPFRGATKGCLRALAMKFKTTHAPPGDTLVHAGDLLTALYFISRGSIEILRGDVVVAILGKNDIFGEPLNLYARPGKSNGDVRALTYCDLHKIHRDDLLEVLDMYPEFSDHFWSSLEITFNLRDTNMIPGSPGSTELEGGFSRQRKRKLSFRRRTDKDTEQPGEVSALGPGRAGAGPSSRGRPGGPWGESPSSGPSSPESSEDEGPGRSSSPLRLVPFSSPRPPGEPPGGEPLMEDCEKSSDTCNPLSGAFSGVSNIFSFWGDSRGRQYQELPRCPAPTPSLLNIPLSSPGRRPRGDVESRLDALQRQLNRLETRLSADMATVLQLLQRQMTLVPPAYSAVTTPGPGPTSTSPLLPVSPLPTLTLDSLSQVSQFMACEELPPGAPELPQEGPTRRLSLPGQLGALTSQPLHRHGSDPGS

SMILES | hERG current change (%, negative = inhibition) at 10uM
Cn1c(=O)c2c(nc(NCc3ccco3)n2CC(O)COc2ccccc2)n(C)c1=O (centres unmarked) | -25.9%
N#CC(=C1CCCC1)c1nc(-c2cc3ccccc3oc2=O)cs1 | 13%
Cc1ccc(C(=O)N2CCN(c3ccc(NC(=O)c4ccc(Br)o4)cc3)CC2)cc1 | -68.8%
CSc1nc2sc3c(c2c(=O)[nH]1)CC(C)(C)OC3 | 13.8%
CN1C(=O)C(CC(=O)Nc2ccc(F)cc2)N(Cc2ccco2)C1=S (centres unmarked) | -18.3%
COC(=O)c1ccc(Nc2cc(C)nc3ncnn23)cc1 | 2.44%
CN(C)CCc1cc2c(c3c1ccc1ccccc13)OCO2.Cl | -37.3%
Clc1ccc(-c2csc(N3CCN(c4ccccc4)CC3)n2)cc1 | 5.69%
O=C1C(c2ccccc2)=[N+]([O-])c2ccccc21 | 4.03%
C=CCc1cc(/C=N\NC(=O)CSc2nnc(CCCc3ccc(OC)c(C)c3)o2)cc(OC)c1O | 6.96%
Cn1nc(C(F)(F)F)c(-c2ccccc2)c1N | 13.3%
CC1(C(=O)c2ccccc2)C2c3c(ccc4ccccc34)OC(=O)C21C(=O)N1CCOCC1 (centres unmarked) | -9.87%
CCOc1c2ccc(C(=O)NCc3ccc4c(c3)OCO4)cc2nn1C | 17.6%
Cc1ccc(N(C(=O)c2ccc3c(c2)OCO3)C2C=CS(=O)(=O)C2)cc1 (centres unmarked) | -29.7%
CCC1(CC)NC(=O)N(CC(=O)OCC(=O)Nc2ccc(F)c(F)c2F)C1=O | 11%
COc1ccc(-n2c(N)c(-c3nc4ccccc4n3C)sc2=S)cc1 | 9.76%
O=C(Nc1ccc2oc(-c3ccccc3)nc2c1)c1cc(-n2cnnc2)ccc1Cl | 3.83%
CCN(CC)S(=O)(=O)c1ccc(N2CCOCC2)c(NC(=O)c2ccc(=O)n(C)n2)c1 | -25.7%
COc1ccc(CN2CCNC(=O)C2CC(=O)N(C)Cc2ccccn2)cc1OC (centres unmarked) | 11.1%
O=C(CN1C(=O)NC(Cc2c[nH]c3ccccc23)C1=O)NC1CC1 (centres unmarked) | 15.1%
COCCNS(=O)(=O)c1ccc2c(c1)oc(=O)c1cc(S(=O)(=O)NCCOC)ccc12 | -49.1%
CCCCn1c(SCC(=O)c2ccc(OCC)cc2)nc2cc(S(N)(=O)=O)ccc21 | 26.2%
Cc1nn(Cc2ccc(F)cc2)c(C)c1NC(=O)c1cnn2c1NC(c1ccccc1)CC2C(F)(F)F (centres unmarked) | -17.7%
